# Laboratory results: the supplement of paper PMC8728848
# Some of the results follow.
# B1: DrGRIFIN (Danio rerio), Q6DGJ1 (protein)
# chain: MTLRFEASCPDGLCPGWSVILKGETPPEASKFEINFLCDRDDRVAFHFNPRFTESDIICNSYMANRWGQEERCNHFPLGVEEPFQIEIYSDNDHFHVYIDKAKVMQYKHRVEDLKTITKLQVVNDVKISSLEITKKLFY
# Tests used:
# Test in all cases: glycan array binding signal (z-score within array); higher = stronger binding
# Details in all cases: glycan notation: IUPAC condensed, linker removed
# GlcNAc(b1-3)Gal(b1-4)Glc = target: GlcNAc(b1-3)Gal(b1-4)Glc
# In short: (§1)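 Glycan array binding is given as a within-array Z-score, which can be read as non-binding when negative. The arrays, 3228 of them, came from the Consortium for Functional Glycomics database and were retained only where the protein sequence was available. Z-scores were averaged across arrays of the same protein sequence at different concentrations or buffers and across linkers.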
# [1] = target: GlcNAc(b1-3)Gal(b1-4)GlcNAc
# In short: as §1
# [2] = target: GlcNAc(b1-3)Gal(b1-4)GlcNAc(b1-2)Man(a1-3)[GlcNAc(b1-3)Gal(b1-4)GlcNAc(b1-2)Man(a1-6)]Man(b1-4)GlcNAc(b1-4)GlcNAc
# In short: as §1
# [3] = target: GlcNAc(b1-3)Gal(b1-4)GlcNAc(b1-2)Man(a1-3)[GlcNAc(b1-3)Gal(b1-4)GlcNAc(b1-2)Man(a1-6)]Man(b1-4)GlcNAc(b1-4)[Fuc(a1-6)]GlcNAc
# In short: as §1
# [4] = target: GlcNAc(b1-3)Gal(b1-4)GlcNAc(b1-2)[GlcNAc(b1-3)Gal(b1-4)GlcNAc(b1-6)]Man(a1-6)[GlcNAc(b1-3)Gal(b1-4)GlcNAc(b1-2)Man(a1-3)]Man(b1-4)GlcNAc(b1-4)GlcNAc
# In short: as §1
# [5] = target: GlcNAc(b1-3)Gal(b1-4)GlcNAc(b1-3)Gal(b1-4)GlcNAc
# In short: as §1
# [6] = target: GlcNAc(b1-3)Gal(b1-4)GlcNAc(b1-3)Gal(b1-4)GlcNAc(b1-2)Man(a1-3)[GlcNAc(b1-3)Gal(b1-4)GlcNAc(b1-3)Gal(b1-4)GlcNAc(b1-2)Man(a1-6)]Man(b1-4)GlcNAc(b1-4)GlcNAc
# In short: as §1
# [7] = target: GlcNAc(b1-3)Gal(b1-4)GlcNAc(b1-3)Gal(b1-4)GlcNAc(b1-2)Man(a1-3)[GlcNAc(b1-3)Gal(b1-4)GlcNAc(b1-3)Gal(b1-4)GlcNAc(b1-2)Man(a1-6)]Man(b1-4)GlcNAc(b1-4)[Fuc(a1-6)]GlcNAc
# In short: as §1
# [8] = target: GlcNAc(b1-3)Gal(b1-4)GlcNAc(b1-3)Gal(b1-4)GlcNAc(b1-2)[GlcNAc(b1-3)Gal(b1-4)GlcNAc(b1-3)Gal(b1-4)GlcNAc(b1-6)]Man(a1-6)[GlcNAc(b1-3)Gal(b1-4)GlcNAc(b1-3)Gal(b1-4)GlcNAc(b1-2)Man(a1-3)]Man(b1-4)GlcNAc(b1-4)[Fuc(a1-6)]GlcNAc
# In short: as §1
# [9] = target: GlcNAc(b1-3)Gal(b1-4)GlcNAc(b1-3)Gal(b1-4)GlcNAc(b1-3)Gal(b1-4)GlcNAc(b1-2)Man(a1-3)[GlcNAc(b1-3)Gal(b1-4)GlcNAc(b1-3)Gal(b1-4)GlcNAc(b1-3)Gal(b1-4)GlcNAc(b1-2)Man(a1-6)]Man(b1-4)GlcNAc(b1-4)GlcNAc
# In short: as §1
# [10] = target: GlcNAc(b1-3)Gal(b1-4)GlcNAc(b1-3)Gal(b1-4)GlcNAc(b1-3)Gal(b1-4)GlcNAc(b1-2)Man(a1-3)[GlcNAc(b1-3)Gal(b1-4)GlcNAc(b1-3)Gal(b1-4)GlcNAc(b1-3)Gal(b1-4)GlcNAc(b1-2)Man(a1-6)]Man(b1-4)GlcNAc(b1-4)[Fuc(a1-6)]GlcNAc
# In short: as §1
# [11] = target: GlcNAc(b1-3)Gal(b1-4)GlcNAc(b1-3)Gal(b1-4)GlcNAc(b1-3)Gal(b1-4)GlcNAc(b1-2)[GlcNAc(b1-3)Gal(b1-4)GlcNAc(b1-3)Gal(b1-4)GlcNAc(b1-3)Gal(b1-4)GlcNAc(b1-6)]Man(a1-6)[GlcNAc(b1-3)Gal(b1-4)GlcNAc(b1-3)Gal(b1-4)GlcNAc(b1-3)Gal(b1-4)GlcNAc(b1-2)Man(a1-3)]Man(b1-4)GlcNAc(b1-4)[Fuc(a1-6)]GlcNAc
# In short: as §1
# [12] = target: GlcNAc(b1-3)Gal(b1-4)GlcNAc(b1-3)Gal(b1-4)GlcNAc(b1-3)Gal(b1-4)GlcNAc(b1-3)Gal(b1-4)GlcNAc(b1-2)Man(a1-3)[GlcNAc(b1-3)Gal(b1-4)GlcNAc(b1-3)Gal(b1-4)GlcNAc(b1-3)Gal(b1-4)GlcNAc(b1-3)Gal(b1-4)GlcNAc(b1-2)Man(a1-6)]Man(b1-4)GlcNAc(b1-4)GlcNAc
# In short: as §1
# [13] = target: GlcNAc(b1-3)Gal(b1-4)GlcNAc(b1-3)Gal(b1-4)GlcNAc(b1-3)Gal(b1-4)GlcNAc(b1-3)Gal(b1-4)GlcNAc(b1-2)Man(a1-3)[GlcNAc(b1-3)Gal(b1-4)GlcNAc(b1-3)Gal(b1-4)GlcNAc(b1-3)Gal(b1-4)GlcNAc(b1-3)Gal(b1-4)GlcNAc(b1-2)Man(a1-6)]Man(b1-4)GlcNAc(b1-4)[Fuc(a1-6)]GlcNAc
# In short: as §1
# [14] = target: GlcNAc(b1-3)Gal(b1-4)GlcNAc(b1-3)Gal(b1-4)GlcNAc(b1-3)Gal(b1-4)GlcNAc(b1-3)Gal(b1-4)GlcNAc(b1-2)[GlcNAc(b1-3)Gal(b1-4)GlcNAc(b1-3)Gal(b1-4)GlcNAc(b1-3)Gal(b1-4)GlcNAc(b1-3)Gal(b1-4)GlcNAc(b1-6)]Man(a1-6)[GlcNAc(b1-3)Gal(b1-4)GlcNAc(b1-3)Gal(b1-4)GlcNAc(b1-3)Gal(b1-4)GlcNAc(b1-3)Gal(b1-4)GlcNAc(b1-2)Man(a1-3)]Man(b1-4)GlcNAc(b1-4)[Fuc(a1-6)]GlcNAc
# In short: as §1
# [15] = target: GlcNAc(b1-3)Gal(b1-4)GlcNAc(b1-3)Gal(b1-4)GlcNAc(b1-3)GalNAc
# In short: as §1
# [16] = target: GlcNAc(b1-3)Gal(b1-4)GlcNAc(b1-3)GalNAc
# In short: as §1
# [17] = target: GlcNAc(b1-3)Gal(b1-4)GlcNAc(b1-3)[GlcNAc(b1-3)Gal(b1-4)GlcNAc(b1-3)]GalNAc
# In short: as §1
# [18] = target: GlcNAc(b1-3)Gal(b1-4)GlcNAc(b1-6)[Gal(b1-3)]GalNAc
# In short: as §1
# [19] = target: GlcNAc(b1-3)Gal(b1-4)GlcNAc(b1-6)[GlcNAc(b1-3)Gal(b1-3)]GalNAc
# In short: as §1
# [20] = target: GlcNAc(b1-3)Gal(b1-4)GlcNAc(b1-6)[GlcNAc(b1-3)]Gal(b1-4)GlcNAc
# In short: as §1
# GlcNAc(b1-3)GalNAc = target: GlcNAc(b1-3)GalNAc
# In short: as §1
# GlcNAc(b1-3)Man = target: GlcNAc(b1-3)Man
# In short: as §1
# [21] = target: GlcNAc(b1-3)[GlcNAc(b1-4)][GlcNAc(b1-6)]GlcNAc
# In short: as §1
# [22] = target: GlcNAc(b1-3)[GlcNAc(b1-6)]Gal(b1-4)GlcNAc
# In short: as §1
# [23] = target: GlcNAc(b1-3)[GlcNAc(b1-6)]GalNAc
# In short: as §1
# [24] = target: GlcNAc(b1-4)Gal(b1-4)GlcNAc
# In short: as §1
# GlcNAc(b1-4)GlcNAc = target: GlcNAc(b1-4)GlcNAc
# In short: as §1
# [25] = target: GlcNAc(b1-4)GlcNAc(b1-4)GlcNAc
# In short: as §1
# [26] = target: GlcNAc(b1-4)GlcNAc(b1-4)GlcNAc(b1-4)GlcNAc(b1-4)GlcNAc
# In short: as §1
# [27] = target: GlcNAc(b1-4)GlcNAc(b1-4)GlcNAc(b1-4)GlcNAc(b1-4)GlcNAc(b1-4)GlcNAc
# In short: as §1
# [28] = target: GlcNAc(b1-4)[GlcNAc(b1-6)]GalNAc
# In short: as §1
# [29] = target: GlcNAc(b1-6)Gal(b1-4)GlcNAc
# In short: as §1
# GlcNAc(b1-6)GalNAc = target: GlcNAc(b1-6)GalNAc
# In short: as §1
# [30] = target: GlcNAc6S(b1-3)Gal(b1-4)GlcNAc
# In short: as §1
# Kdn(a2-3)Gal(b1-3)GalNAc = target: Kdn(a2-3)Gal(b1-3)GalNAc
# In short: as §1
# Kdn(a2-3)Gal(b1-3)GlcNAc = target: Kdn(a2-3)Gal(b1-3)GlcNAc
# In short: as §1
# Kdn(a2-3)Gal(b1-4)Glc = target: Kdn(a2-3)Gal(b1-4)Glc
# In short: as §1
# Kdn(a2-3)Gal(b1-4)GlcNAc = target: Kdn(a2-3)Gal(b1-4)GlcNAc
# In short: as §1
# [31] = target: Kdn(a2-3)Gal(b1-4)[Fuc(a1-3)]GlcNAc
# In short: as §1
# Kdn(a2-6)Gal(b1-4)GlcNAc = target: Kdn(a2-6)Gal(b1-4)GlcNAc
# In short: as §1
# [32] = target: Man(a1-2)Man(a1-2)Man(a1-3)Man
# In short: as §1
# [33] = target: Man(a1-2)Man(a1-2)Man(a1-6)[Man(a1-3)]Man
# In short: as §1
# Man(a1-2)Man(a1-3)Man = target: Man(a1-2)Man(a1-3)Man
# In short: as §1
# [34] = target: Man(a1-2)Man(a1-3)[Man(a1-2)Man(a1-6)]Man
# In short: as §1
binder,measurement,setting,value
B1,glycan array binding signal (z-score),GlcNAc(b1-3)Gal(b1-4)Glc,-0.171
same,glycan array binding signal (z-score),[1],-0.153
same,glycan array binding signal (z-score),[2],-0.132
same,glycan array binding signal (z-score),[3],-0.163
same,glycan array binding signal (z-score),[4],-0.182
same,glycan array binding signal (z-score),[5],-0.181
same,glycan array binding signal (z-score),[6],-0.14
same,glycan array binding signal (z-score),[7],-0.169
same,glycan array binding signal (z-score),[8],-0.18
same,glycan array binding signal (z-score),[9],-0.159
same,glycan array binding signal (z-score),[10],-0.221
same,glycan array binding signal (z-score),[11],-0.163
same,glycan array binding signal (z-score),[12],-0.138
same,glycan array binding signal (z-score),[13],-0.206
same,glycan array binding signal (z-score),[14],-0.149
same,glycan array binding signal (z-score),[15],-0.2
same,glycan array binding signal (z-score),[16],-0.078
same,glycan array binding signal (z-score),[17],-0.215
same,glycan array binding signal (z-score),[18],-0.176
same,glycan array binding signal (z-score),[19],-0.174
same,glycan array binding signal (z-score),[20],-0.16
same,glycan array binding signal (z-score),GlcNAc(b1-3)GalNAc,-0.068
same,glycan array binding signal (z-score),GlcNAc(b1-3)Man,-0.162
same,glycan array binding signal (z-score),[21],-0.101
same,glycan array binding signal (z-score),[22],-0.205
same,glycan array binding signal (z-score),[23],-0.174
same,glycan array binding signal (z-score),[24],-0.166
same,glycan array binding signal (z-score),GlcNAc(b1-4)GlcNAc,-0.135
same,glycan array binding signal (z-score),[25],-0.214
same,glycan array binding signal (z-score),[26],-0.193
same,glycan array binding signal (z-score),[27],-0.134
same,glycan array binding signal (z-score),[28],-0.188
same,glycan array binding signal (z-score),[29],-0.155
same,glycan array binding signal (z-score),GlcNAc(b1-6)GalNAc,-0.133
same,glycan array binding signal (z-score),[30],-0.16
same,glycan array binding signal (z-score),Kdn(a2-3)Gal(b1-3)GalNAc,-0.202
same,glycan array binding signal (z-score),Kdn(a2-3)Gal(b1-3)GlcNAc,-0.2
same,glycan array binding signal (z-score),Kdn(a2-3)Gal(b1-4)Glc,-0.135
same,glycan array binding signal (z-score),Kdn(a2-3)Gal(b1-4)GlcNAc,-0.095
same,glycan array binding signal (z-score),[31],-0.132
same,glycan array binding signal (z-score),Kdn(a2-6)Gal(b1-4)GlcNAc,-0.169
same,glycan array binding signal (z-score),[32],-0.16
same,glycan array binding signal (z-score),[33],-0.182
same,glycan array binding signal (z-score),Man(a1-2)Man(a1-3)Man,-0.221
same,glycan array binding signal (z-score),[34],-0.046
